# Source: the supplement of paper PMC8728848
# The list shows a part of the results.
# B1: RBMC2 (Vibrio cholerae) (protein)
# chain: KISVRSGFAIDAIGASASTLVGGTGGNLNAAVNVKDIKAIDLTWGKYYWGGYHLLALDFRMSNGSVISMGSKNYAYSKQTERFTVPAGSRIKGIKAWTAGWLLDGVQFELA
# Experiments:
# Assay in all cases: glycan array binding signal (z-score within array); higher = stronger binding
# Conditions in all cases: glycan notation: IUPAC condensed, linker removed
# [1] = target: Neu5Ac(a2-6)Gal(b1-4)GlcNAc(b1-2)Man(a1-3)[Neu5Ac(a2-3)Gal(b1-4)GlcNAc(b1-2)Man(a1-6)]Man(b1-4)GlcNAc(b1-4)GlcNAc
# How it was run: (§1)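 Negative Z-scores can be read as non-binding. The Z-score is calculated within each array and then averaged across arrays of one protein sequence at different concentrations or buffers and across linkers. Arrays, 3228 in all, were curated from the Consortium for Functional Glycomics database and kept only where the protein sequence was available.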
# [2] = target: Neu5Ac(a2-6)Gal(b1-4)GlcNAc(b1-2)Man(a1-3)[Neu5Ac(a2-6)Gal(b1-4)GlcNAc(b1-2)Man(a1-6)]Man(b1-4)GlcNAc(b1-4)GlcNAc
# How it was run: as §1
# [3] = target: Neu5Ac(a2-6)Gal(b1-4)GlcNAc(b1-2)Man(a1-3)[Neu5Ac(a2-6)Gal(b1-4)GlcNAc(b1-2)Man(a1-6)]Man(b1-4)GlcNAc(b1-4)[Fuc(a1-6)]GlcNAc
# How it was run: as §1
# [4] = target: Neu5Ac(a2-6)Gal(b1-4)GlcNAc(b1-2)Man(a1-6)Man(b1-4)GlcNAc(b1-4)GlcNAc
# How it was run: as §1
# [5] = target: Neu5Ac(a2-6)Gal(b1-4)GlcNAc(b1-2)Man(a1-6)[Gal(b1-4)GlcNAc(b1-2)Man(a1-3)]Man(b1-4)GlcNAc(b1-4)GlcNAc
# How it was run: as §1
# [6] = target: Neu5Ac(a2-6)Gal(b1-4)GlcNAc(b1-2)Man(a1-6)[GlcNAc(b1-2)Man(a1-3)]Man(b1-4)GlcNAc(b1-4)GlcNAc
# How it was run: as §1
# [7] = target: Neu5Ac(a2-6)Gal(b1-4)GlcNAc(b1-2)Man(a1-6)[Man(a1-3)]Man(b1-4)GlcNAc(b1-4)GlcNAc
# How it was run: as §1
# [8] = target: Neu5Ac(a2-6)Gal(b1-4)GlcNAc(b1-2)[Neu5Ac(a2-6)Gal(b1-4)GlcNAc(b1-4)]Man(a1-3)[GlcNAc(b1-4)][Neu5Ac(a2-6)Gal(b1-4)GlcNAc(b1-2)[Neu5Ac(a2-6)Gal(b1-4)GlcNAc(b1-6)]Man(a1-6)]Man(b1-4)GlcNAc(b1-4)GlcNAc
# How it was run: as §1
# [9] = target: Neu5Ac(a2-6)Gal(b1-4)GlcNAc(b1-2)[Neu5Ac(a2-6)Gal(b1-4)GlcNAc(b1-4)]Man(a1-3)[GlcNAc(b1-4)][Neu5Ac(a2-6)Gal(b1-4)GlcNAc(b1-4)Man(a1-6)]Man(b1-4)GlcNAc(b1-4)GlcNAc
# How it was run: as §1
# [10] = target: Neu5Ac(a2-6)Gal(b1-4)GlcNAc(b1-2)[Neu5Ac(a2-6)Gal(b1-4)GlcNAc(b1-6)]Man(a1-6)[Neu5Ac(a2-6)Gal(b1-4)GlcNAc(b1-2)Man(a1-3)][GlcNAc(b1-4)]Man(b1-4)GlcNAc(b1-4)GlcNAc
# How it was run: as §1
# [11] = target: Neu5Ac(a2-6)Gal(b1-4)GlcNAc(b1-3)Gal(b1-3)GlcNAc
# How it was run: as §1
# [12] = target: Neu5Ac(a2-6)Gal(b1-4)GlcNAc(b1-3)Gal(b1-4)GlcNAc
# How it was run: as §1
# [13] = target: Neu5Ac(a2-6)Gal(b1-4)GlcNAc(b1-3)Gal(b1-4)GlcNAc(b1-2)Man(a1-3)[Neu5Ac(a2-6)Gal(b1-4)GlcNAc(b1-3)Gal(b1-4)GlcNAc(b1-2)Man(a1-6)]GalNAc
# How it was run: as §1
# [14] = target: Neu5Ac(a2-6)Gal(b1-4)GlcNAc(b1-3)Gal(b1-4)GlcNAc(b1-3)Gal(b1-4)GlcNAc
# How it was run: as §1
# [15] = target: Neu5Ac(a2-6)Gal(b1-4)GlcNAc(b1-3)Gal(b1-4)GlcNAc(b1-3)Gal(b1-4)GlcNAc(b1-2)Man(a1-3)[Neu5Ac(a2-6)Gal(b1-4)GlcNAc(b1-3)Gal(b1-4)GlcNAc(b1-3)Gal(b1-4)GlcNAc(b1-2)Man(a1-6)]GalNAc
# How it was run: as §1
# [16] = target: Neu5Ac(a2-6)Gal(b1-4)GlcNAc(b1-3)Gal(b1-4)GlcNAc(b1-3)GalNAc
# How it was run: as §1
# [17] = target: Neu5Ac(a2-6)Gal(b1-4)GlcNAc(b1-3)Gal(b1-4)GlcNAc(b1-3)[Neu5Ac(a2-6)Gal(b1-4)GlcNAc(b1-3)Gal(b1-4)GlcNAc(b1-6)]GalNAc
# How it was run: as §1
# [18] = target: Neu5Ac(a2-6)Gal(b1-4)GlcNAc(b1-3)Gal(b1-4)GlcNAc(b1-6)[Gal(b1-3)]GalNAc
# How it was run: as §1
# [19] = target: Neu5Ac(a2-6)Gal(b1-4)GlcNAc(b1-3)Gal(b1-4)[Fuc(a1-3)]GlcNAc(b1-3)Gal(b1-4)[Fuc(a1-3)]GlcNAc
# How it was run: as §1
# [20] = target: Neu5Ac(a2-6)Gal(b1-4)GlcNAc(b1-3)GalNAc
# How it was run: as §1
# [21] = target: Neu5Ac(a2-6)Gal(b1-4)GlcNAc(b1-3)[Neu5Ac(a2-6)Gal(b1-4)GlcNAc(b1-6)]GalNAc
# How it was run: as §1
# [22] = target: Neu5Ac(a2-6)Gal(b1-4)GlcNAc(b1-6)GalNAc
# How it was run: as §1
# [23] = target: Neu5Ac(a2-6)Gal(b1-4)GlcNAc(b1-6)[Gal(b1-3)GlcNAc(b1-3)]Gal(b1-4)Glc
# How it was run: as §1
# [24] = target: Neu5Ac(a2-6)Gal(b1-4)GlcNAc(b1-6)[Gal(b1-3)]GalNAc
# How it was run: as §1
# [25] = target: Neu5Ac(a2-6)Gal(b1-4)GlcNAc6S
# How it was run: as §1
# [26] = target: Neu5Ac(a2-6)GalNAc
# How it was run: as §1
# [27] = target: Neu5Ac(a2-6)GalNAc(b1-4)GlcNAc
# How it was run: as §1
# [28] = target: Neu5Ac(a2-6)GalNAc(b1-4)GlcNAc6S
# How it was run: as §1
# [29] = target: Neu5Ac(a2-6)GlcNAc(b1-4)GlcNAc
# How it was run: as §1
# [30] = target: Neu5Ac(a2-6)GlcNAc(b1-4)GlcNAc(b1-4)GlcNAc
# How it was run: as §1
binder,measurement,setting,value
B1,glycan array binding signal (z-score),[1],3.39
same,glycan array binding signal (z-score),[2],2.41
same,glycan array binding signal (z-score),[3],3.57
same,glycan array binding signal (z-score),[4],-0.226
same,glycan array binding signal (z-score),[5],3.52
same,glycan array binding signal (z-score),[6],2.95
same,glycan array binding signal (z-score),[7],0.459
same,glycan array binding signal (z-score),[8],-0.425
same,glycan array binding signal (z-score),[9],-0.278
same,glycan array binding signal (z-score),[10],-0.358
same,glycan array binding signal (z-score),[11],-0.172
same,glycan array binding signal (z-score),[12],-0.407
same,glycan array binding signal (z-score),[13],0.542
same,glycan array binding signal (z-score),[14],-0.262
same,glycan array binding signal (z-score),[15],0.899
same,glycan array binding signal (z-score),[16],-0.276
same,glycan array binding signal (z-score),[17],-0.284
same,glycan array binding signal (z-score),[18],-0.204
same,glycan array binding signal (z-score),[19],-0.338
same,glycan array binding signal (z-score),[20],-0.407
same,glycan array binding signal (z-score),[21],-0.242
same,glycan array binding signal (z-score),[22],-0.155
same,glycan array binding signal (z-score),[23],-0.398
same,glycan array binding signal (z-score),[24],-0.421
same,glycan array binding signal (z-score),[25],-0.412
same,glycan array binding signal (z-score),[26],-0.408
same,glycan array binding signal (z-score),[27],-0.287
same,glycan array binding signal (z-score),[28],-0.263
same,glycan array binding signal (z-score),[29],-0.343
same,glycan array binding signal (z-score),[30],-0.254
